Laboratory results from the supplement of paper PMC10126150.
Values marked as one replicate rest on one cluster of the flow cell; about a third of the high ones do not repeat.

Test system: ATP
Assay: switch fluorescence ratio, 500 uM ATP over buffer (Cy3 cluster intensity, sum of 5 cycles each) (fold (ratio)); higher = stronger signal-on switching upon ATP binding; sequences stand for … in TCGTCGGCAGCGTCAGATGTGTATAAGAGACAGTTTTTTTTTTTTTTTTTTTTTTTTT…TC
Details: aptamer strand: ATP DNA aptamer (quencher-CACCTGGGGGAGTATTGCGGAGGAAGG + anchor), 100 nM annealed; ATP concentration: 500 uM; one replicate
Summary of the method: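 Exposure to 500 uM ATP lasted 15 min at 22 °C before imaging, and a selection-buffer image was taken beforehand, for Cy3-labelled switching-strand clusters on a modified Illumina MiSeq flow-cell annealed to 100 nM quencher-labelled ATP aptamer. Five buffer/ATP cycles were run with NaOH stripping and re-annealing between them. The fluorescence ratio per cluster is summed target-cycle over summed buffer-cycle Cy3 intensity, averaged per switch-domain sequence. Clusters outside 100-1000 RFU were excluded.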

Row | Sequence | switch fluorescence ratio
1 | TTATACTTT | 1.01
2 | ATAGTGAAAG | 0.979
3 | AGTCGAAGGT | 0.973
4 | TGCTCTTTCG | 0.938
5 | GTAGCACGTC | 1.08
6 | ATGCTTGGAA | 1.04
7 | CGAGTGTGGA | 1.06
8 | GCTTTTTTGC | 0.965
9 | GAATACATCC | 1.06
10 | GAGCTAGTTT | 1.08
11 | CGATTGGGGA | 1
12 | CCGCACCAAA | 3.02
13 | GTCGTCTCTT | 1.01
14 | ACCGTAATAT | 5.49
15 | TATCTTGGT | 1.02
16 | TCTGTTTGAT | 0.964
17 | CCTTTAGTTC | 1.05
18 | ATCCAGCATA | 1.7
19 | AGGAAGCTTG | 0.988
20 | ACGTGCTCTA | 1.05
21 | CTTTGTGGAT | 0.994
22 | GCACTAACTG | 1.05
23 | GGATCAACTC | 1.02

Row | Sequence | switch fluorescence ratio
24 | CAGTATTTTC | 1.02
25 | CACTGAATGT | 1.01
26 | ATGATTGGAA | 0.957
27 | AGGTTTATAC | 1
28 | TCGAGCCCGG | 1.31
29 | CGGTGCACTA | 1.01
30 | GGGGTGTCGC | 1.06
31 | TGAGGGCATA | 1.56
32 | TAGTATTTT | 1.02
33 | GTGTCCCTCA | 0.979
34 | CAGGCATATT | 1.02
35 | CTTGTGTAGA | 0.962
36 | TAACCGAAGA | 1.05
37 | TATAGCGGCT | 1.05
38 | GGGTTGAATT | 1
39 | ATGGAGGGCT | 0.988
40 | ACATAGGTAT | 1
41 | AAAGTGGGAC | 0.983
42 | GAAATCGGGT | 1
43 | AGATATTGC | 1.01
44 | CCGCCGGATA | 2.68
45 | GTTAGCAACC | 1.13
46 | ATGGTCTAGG | 0.972

Row | Sequence | switch fluorescence ratio
47 | TACTCTTTGG | 1.03
48 | TTAACAAAGG | 0.982
49 | GGCTTCATTC | 1.05
50 | GTTGTCCCTC | 0.957
51 | AGATCAAGCA | 0.978
52 | CTTTACGCTG | 1.05
53 | AACTACGTTA | 1.06
54 | TAGTATCAAG | 0.963
55 | CTAATACCG | 1.13
56 | CGAATCCCTA | 0.966
57 | TTATCCTC | 1.02
58 | TCTCTGTCAC | 1.49
59 | AAGTTTACGA | 1.02
60 | CGCATTCAGT | 1.13
61 | AGACTGCCAG | 0.987
62 | AACATCTTCT | 0.992
63 | ATCGTTGTGC | 0.986
64 | CGCGTTGAAG | 1.02
65 | AGGGAGGACC | 0.987
66 | GATGTTGGAC | 0.99
67 | CTCGTAACCG | 1.02
68 | TAGACTATTT | 0.987
69 | TCTGTTCATA | 1.02

Row | Sequence | switch fluorescence ratio
70 | TGTAAAGGG | 1.05
71 | ATCAATCTTT | 0.993
72 | ATTATTTTCC | 1.05
73 | TTTATCACGA | 0.971
74 | GAGGTCCTGT | 0.98
75 | TTGAGTTGAG | 0.976
76 | CTTGAGGTAT | 1.03
77 | TCAGAGGTAA | 1.04
78 | CTAAACTT | 1.05
79 | GATCTGGCAG | 0.974
80 | TCACTATCTA | 1.06
81 | CTACTAGGAC | 1.06
82 | ACCGACTGGA | 1.03
83 | GGCTTGGGCC | 0.97
84 | TGAGTTCTAG | 1.01
85 | GAGCAAGCGG | 1.09
86 | CAAGGTACG | 1.03
87 | AGGGGCTACG | 1.02
88 | GGTTTTCGGA | 0.953
89 | CCCCGGACGT | 1.12
90 | AGCGGCCCGA | 1.01
91 | GGCATTTAAG | 1
92 | CGTCTTACGC | 0.971

Row | Sequence | switch fluorescence ratio
93 | TGAAGGAATC | 1.03
94 | TAGGATGCGA | 1.04
95 | AACTGGGAAC | 1.03
96 | GCTATCTGA | 1
97 | CGTGCTGGTC | 1.08
98 | ATGAGGGTGA | 1.03
99 | GTGGGGCATC | 0.984
100 | CGCCTGCCGT | 1
101 | GAATGTGGAC | 1.03
102 | ATGAGGAGC | 0.919
103 | ACTACTCTG | 1.01
104 | GCAAGTGTCT | 1.07
105 | TGTCTAGGGA | 1.1
106 | CCCCGCGGGG | 4.73
107 | GTTGCATGGT | 1.05
108 | ATTACGTAGG | 1.03
109 | GGTTACGGCT | 1.02
110 | GAGCACCGGA | 1.1
111 | AAGTAGCCCC | 1.05
112 | GAAGCAGAGG | 1.23
113 | GCCTGCAGGG | 0.978
114 | TCTAATTTGT | 1.04
115 | ATAGGTGATT | 1.01

Row | Sequence | switch fluorescence ratio
116 | CATAAGTTAC | 1.17
117 | TGTTGGTGAC | 1.02
118 | ATCCATATAG | 1
119 | GGGCCCACTC | 1.04
120 | ACAAATAGGA | 1
121 | GCGAGATAAA | 0.952
122 | TTCATTGTGT | 1.01
123 | CCCTGCACAA | 3.22
124 | GGCACAGCGA | 1.04
125 | AATGTGTCCT | 1.05
126 | TCGACAAGCT | 1.07
127 | AGCGCAAAGC | 1.2
128 | CCGGCACCAA | 2.4
129 | AGGGACGTTA | 1.12
130 | GCCGGGTGGG | 1
131 | TAGGTCTCGG | 1.02
132 | GCCGTCTAGC | 1.02
133 | CGATACGTCC | 1.05
134 | GTGAATGAGG | 0.977
135 | AGGAACAATA | 1.01
136 | GAAAGTTTC | 1.02
137 | GGGCGATATC | 1.34
138 | TGGCGTACCC | 0.994

Row | Sequence | switch fluorescence ratio
139 | CCTGAGGGCA | 1.01
140 | TATGGAGGTG | 1.05
141 | GGGTCCCTTA | 1.01
142 | GTGTGCTGTT | 0.989
143 | CCGAGGGCGT | 1.09
144 | CAGTCCTCTG | 1
145 | CTTCGGCGTT | 1.02
146 | GTGCCAGTCC | 1.07
147 | TCACAGTATC | 1.06
148 | CGAATTCGTA | 1.02
149 | CGGGTGTCCG | 1.03
150 | CGGGGGACGA | 1.01
151 | TATCGCCCCG | 1.04
152 | ACCGAGCCCC | 1.03
153 | GGCCGGGTCA | 0.946
154 | TATTAACCAA | 0.979
155 | TAGTCCGTTG | 1.01
156 | GGTCAAAAGT | 1
157 | TTGCCGGGAT | 1.03
